Measurements taken from PubChem BioAssay AID1460 (National Center for Advancing Translational Sciences (NCATS), 2008).
In all, about 270,000 compounds went through this assay and about 5,800 (2.1%) were called active. Inconclusive means that the source gave no clear call. Such entries were picked first, then a sample of the others. Calls come from the whole dose curve; as a rule, active = well fitted inhibition curve with a large enough effect; inconclusive = small, poorly fitted or top-dose-only effect; inactive = flat fitted curve, though single readings scatter. Potencies beside an inconclusive call are fits to weak or partial responses and may not hold up.

Target: Microtubule-associated protein tau (Homo sapiens) (UniProt P10636)
Chain of UniProt P10636 (P10636 whole entry, looked up): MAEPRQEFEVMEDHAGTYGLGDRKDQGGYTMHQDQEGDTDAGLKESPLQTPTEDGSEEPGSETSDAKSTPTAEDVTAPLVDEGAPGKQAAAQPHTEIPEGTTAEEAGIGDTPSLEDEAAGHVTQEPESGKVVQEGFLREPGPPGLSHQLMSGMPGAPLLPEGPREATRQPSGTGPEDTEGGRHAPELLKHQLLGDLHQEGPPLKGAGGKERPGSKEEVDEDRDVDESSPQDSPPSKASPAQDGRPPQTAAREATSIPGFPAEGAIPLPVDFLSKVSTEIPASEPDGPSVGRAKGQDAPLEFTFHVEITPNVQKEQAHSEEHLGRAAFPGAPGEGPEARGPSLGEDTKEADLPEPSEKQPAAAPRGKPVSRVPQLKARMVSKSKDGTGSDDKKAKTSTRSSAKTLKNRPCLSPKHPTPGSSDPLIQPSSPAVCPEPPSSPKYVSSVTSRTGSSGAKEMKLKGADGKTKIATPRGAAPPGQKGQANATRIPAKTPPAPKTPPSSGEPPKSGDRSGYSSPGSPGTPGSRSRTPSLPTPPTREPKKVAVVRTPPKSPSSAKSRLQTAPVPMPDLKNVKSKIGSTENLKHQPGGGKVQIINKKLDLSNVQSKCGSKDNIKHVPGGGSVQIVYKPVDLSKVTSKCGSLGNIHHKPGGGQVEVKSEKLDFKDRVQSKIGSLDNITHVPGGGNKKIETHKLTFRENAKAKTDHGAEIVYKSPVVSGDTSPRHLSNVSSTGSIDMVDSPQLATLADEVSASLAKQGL
Test: qHTS for Inhibitors of Tau Fibril Formation, Thioflavin T Binding; note: nearly all actives have a fitted effect of over 55% in size
Conditions: recombinant tau K18 P301L (four-repeat tau fragment), heparin-induced fibrillization, ThT fluorescence; series mostly up to 57.4 µM; activity, negative = inhibition: at the top concentration
Procedure, shortened: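 Tau K18 P301L fragment (15 uM unlabeled plus 0.24 uM Alexa 594-labeled) in 100 mM sodium acetate pH 7 with compound, fibrillization induced by 20 uM heparin for 6 hr at 37 C. Thioflavin T (30 uM) added, fluorescence read after 1 hr (ex 450, em 510 nm).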
% is set by controls: 0 for no effect and ±100 for the full control effect; potency is the fitted concentration of half-maximal effect; tags give direction and shape of the fitted curve.

Structure (SMILES) | Potency | activity, negative = inhibition
CCc1ccc(NSc2ccccc2[N+](=O)[O-])cc1 | inconclusive: 20 µM [inhibitor, partial curve] | –
O=C1NN(c2ccc(Cl)c(Cl)c2)C(=O)/C1=C/c1cccc(OC(=O)c2cccs2)c1 | active: 15.8 µM | –
COc1ccc2cc3c(N)nn(C(=O)c4cccc([N+](=O)[O-])c4)c3nc2c1 | inconclusive: 15.8 µM [inhibitor, partial curve] | –
COc1ccc(N=C(NN)c2ccc3ccccc3n2)cc1 | active: 15.8 µM | –
C=CCn1c(SCC(O)Cn2c3ccccc3c3ccccc32)nnc1-c1ccco1 (stereo unspecified) | inconclusive: 25.1 µM [inhibitor, single point] | –
COc1cc2[nH]c(=S)n(CC3CCCO3)c(=O)c2cc1OC (stereo unspecified) | – | inactive: -1.09%
COCCn1c(SCc2ccccc2Cl)nc2c1c(=O)[nH]c(=O)n2C | – | inactive: -12.8%
CCCc1cc2c(c(=O)o1)C(O)C1OC1C2=O (stereo unspecified) | inconclusive: 2.82 µM [inhibitor, partial curve] | –
COc1ccccc1-n1nnnc1SCc1ccccc1 | – | inactive: -10.1%
O=c1cc(/C=C/c2ccccc2)oc2ccccc12 | inconclusive: 22.4 µM [inhibitor, partial curve] | –
CCOC(=O)OCC1OC(c2ccc(C(C)=O)cc2)C=CC1Oc1ccc(-c2ccccc2)cc1 (stereo unspecified) | inconclusive: 2.51 µM [inhibitor, partial curve] | –
Cc1oc(-c2cccc(C(F)(F)F)c2)nc1CN1CCN(c2ccccn2)CC1 | inconclusive: 28.2 µM [inhibitor, partial curve] | –
O=C(CN1CCC(n2nnc3cc(C(F)(F)F)ccc32)CC1)Nc1ccc2c(c1)OCCO2 | inconclusive: 20 µM [inhibitor, partial curve] | –
COc1ccc(CCCc2nnc(SCC(=O)Nc3ccc(F)cc3)o2)cc1C | – | inactive: -7.03%
COc1ccc(Nc2nc(C)nc3sc4c(c23)CCC4)cc1O | inconclusive: 7.94 µM [inhibitor, full curve] | –
NC(=O)COc1ccc(=O)n(-c2ccccc2)n1 | – | inactive: -5.65%
N#Cc1ccccc1Sc1ccccc1C(=O)OCc1nnc(-c2ccccc2)o1 | – | inactive: -12.4%
CC(=O)c1ccccc1OC(=O)COc1ccc(Cl)cc1C | inconclusive: 15.8 µM [inhibitor, partial curve] | –
Cc1ccccc1NC(=O)Cn1c(=O)n(Cc2ccc3c(c2)OCO3)c(=O)c2ccc(C(=O)NC3CCCCC3)cc21 | – | inactive: 4.26%
Cc1cc(C)c(NC(=O)CSc2nnc(-c3ccncc3)n2Cc2ccco2)c(Cl)c1 | – | inactive: -14%
Cc1ccc(C(=O)O/N=C(\N)c2cccnc2)cc1[N+](=O)[O-] | inconclusive: 7.94 µM [inhibitor, partial curve] | –
